Source: PMC12136788
Some of the results follow.

B1: chr14:66974463:66974464:+_ENSMUSG00000022044_ENSMUST00000074523|mus_hu|mus_mus_mus_hu_False|8_88 (ssRNA)
RNA: GGGAGUUCUACAGUCCGACGAUCUUGUAGGACGACUUAUUCAGGGGAUCAGACAAGAAGCAGGAGCAGAACAAGGACACCAGCGGGAGCUCCUUCAUCUUCUCUUUGUAGGCAGCAAGGGUCAUGUUGGCUGGAAUUGGUGGCCAACAGAGGAUUGAGCAUCA
B2: chr7:63200040:63200041:-_ENSMUSG00000030452_ENSMUST00000032635|mus_mus|FALSE|FALSE (ssRNA)
RNA: GGGAGUUCUACAGUCCGACGAUCCUCAUUUCGUUAGUUACUUAAGUUCCUGUGAGUGACAUUGAUCACCGAACAGAGAAACUGCUUGUACAGGAGACAAGGUGACGCAAUCCUCAAACAUGUAAGUUUAAUAUGGUCUUUCUUCAACAGAGGAUUGAGCAUCA
B3: chr10:1038518:1038519:+_ENSG00000107937_ENST00000545048|hu_hu|hu_hu_hu_mus_False|28_68 (ssRNA)
RNA: GGGAGUUCUACAGUCCGACGAUCCAGUCUGUCAUGGUAAUUCUGUUGAGUAAAUUUGACUUUUCUCAUGUAAAAAUGUCGAAUCCGAUGAAUUUGAUAAUGUUUAUGAAUAACGGUUGGAGUCUUUCGUUGAGUCUUGGAUAACAACAGAGGAUUGAGCAUCA
B4: chr11:50195847:50195848:+_ENSMUSG00000007850_ENSMUST00000123371|mus_mus|motif|central (ssRNA)
RNA: GGGAGUUCUACAGUCCGACGAUCCCAGAUUUCUUACAUUUAUUUGUAUAGGCAAUGACCAGAAAAUUCACUCAAAAGACGGUUUAAACUUUAUAGAAAAAAAGAAAAUAAACUCCUCUGAGGCAGAGCCCAGCCUUAGAGGCACAACAGAGGAUUGAGCAUCA
B5: chr3:87342203:87342204:+_ENSMUSG00000003382_ENSMUST00000170036|mus_mus|motif|central (ssRNA)
RNA: GGGAGUUCUACAGUCCGACGAUCCCGAGUGCCAUCCCUUGCCUCAGCAGAUAGGAAACCAUUUCUUCUUGCUGCUCUGAGCGGCGGGAGCACACACGUGCACAGAGGCCGUUGGCUGGUGCCGCUUUCUCUCUACCCUAGUGCCAACAGAGGAUUGAGCAUCA
B6: chr18:86887116:86887117:+_ENSMUSG00000024647_ENSMUST00000068423|mus_hu|FALSE|FALSE (ssRNA)
RNA: GGGAGUUCUACAGUCCGACGAUCUACAGCUUCCAUUACCAACUUAUAUGAUUCAGGACCACUCAGGAACACCAGGUUCUUAAAGGAUUCUGAAGUAUAAAUUAAAAAAAAAUGCAGGUUGCUAUUAAUAGUUCUAAAGGUGCACAACAGAGGAUUGAGCAUCA

Molecular target: T1, UNK ZnF1-3 (human, UniProt Q9C0B0 31-174)
T1 sequence: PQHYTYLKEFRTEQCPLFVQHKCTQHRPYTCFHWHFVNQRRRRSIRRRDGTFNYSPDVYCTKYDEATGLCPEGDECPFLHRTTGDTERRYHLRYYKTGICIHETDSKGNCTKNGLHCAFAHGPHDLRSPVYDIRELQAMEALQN
Experiment: nsRBNS (natural sequence RNA bind-n-seq); RBNS binding buffer (assumed for nsRBNS): 25 mM Tris pH 7.5, 150 mM KCl, 3 mM MgCl2, 0.01% Triton X-100, 500 ug/ml BSA, 20 U/ml SUPERase-In, 4 C; UNK is unkempt and MSI1 is Musashi-1; names of the RNAs are library labels; protein concentration not given here; high values mean tight binding

| Binder | binding signal [enrichment R] |
| --- | --- |
| B1 | 1.98 |
| B2 | 1.26 |
| B3 | 0.681 |
| B4 | 2.58 |
| B5 | 0.74 |
| B6 | 1.09 |
